Results published in PubChem BioAssay AID1345082 (National Center for Advancing Translational Sciences (NCATS), 2018).
About 4,000 (4.3%) of roughly 94,000 compounds were called active. This list was built around the results that the source calls inconclusive (neither active nor inactive); the mix of calls is not that of the screen. Calls come from the whole dose curve; as a rule, active = well fitted inhibition curve with a large enough effect; inconclusive = small, poorly fitted or top-dose-only effect; inactive = no such curve, though single readings can be large or run the other way. Potencies of inconclusive entries are doubtful fits and often do not repeat.

Assay: Cytotoxic Profiling in NIH 3T3 Cell Line of Diverse Libraries Using Quantitative High-Throughput Screening; note: nearly all actives have a fitted effect of over 55% in size
Settings: NIH 3T3 viability, CellTiter-Glo ATP luminescence, 48-72 h; activity change, negative = cytotoxicity: at 96.7 µM (top of the series) unless noted; series mostly up to 96.7 µM
How it was run: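 Mouse fibroblast NIH 3T3 cells, 400 per well, received compound via pintool and were incubated for 48 or 72 hr prior to CellTiter-Glo ATP luminescence measurement.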
% is set by controls: 0 for no effect and ±100 for the full control effect; potency is the fitted concentration of half-maximal effect; tags give direction and shape of the fitted curve.

| SMILES | Potency | activity change, negative = cytotoxicity | outcome |
| --- | --- | --- | --- |
| O=[S+]1([O-])c2cccnc2OC(COc2ccccc2)CN1C1Cc2ccccc2C1 (configuration not stated) | inconclusive: 28.2 µM [inhibitor, partial curve, poor fit] | – | – |
| CCOc1ccc(NC(=O)CCNc2c(C)nc3cnccn23)cc1 | inconclusive: 50.1 µM [inhibitor, partial curve, poor fit] | – | – |
| O=S(=O)(Cc1ccccc1)NC[C@H]1Cn2cc(-c3ccccc3)nc2CO1 | – | inactive: -17.9% [at 138 µM] | – |
| COc1cc2c(cc1OC)C(CNC(=O)c1ccc(C)cc1)N(C(=O)NC(C)C)CC2 (configuration not stated) | – | inactive: -2.95% | – |
| Cc1cc(C(=O)N2C[C@@H](CO)[C@H](c3nc(C4CC4)no3)C2)ccn1 | – | inactive: -27.9% | – |
| CC(C)CN1C(=O)c2ccccc2C(C(=O)NCc2ccccn2)C12CCCCC2 (configuration not stated) | – | inactive: -26.7% | – |
| COC(=O)CNC(=O)C1CCCCN1Cc1ccc(-c2cccs2)cc1 (configuration not stated) | inconclusive: 70.8 µM [inhibitor, single point] | – | – |
| O=C(CCn1ccn2nc3c(c2c1=O)CCCC3)Nc1ccc2c(c1)OCO2 | – | inactive: -11.4% | – |
| CS(=O)(=O)N[C@@H]1[C@@H](NC(=O)CCn2nnc3ccccc32)[C@H]2CCO[C@H]21 | – | inactive: -3.25% | – |
| Cn1ncc2c(C(=O)NCc3ccc(F)cc3)cc(-c3cccc(C(F)(F)F)c3)nc21 | – | inactive: -9.27% | – |
| CC(C)(C)C1CCC2(CC1)NC(=O)N(CC(=O)Nc1ccc3c(c1)OCCO3)C2=O (configuration not stated) | active: 28.2 µM | – | – |
| CC(C)(Oc1nn(CCOc2ccccc2)c2ccccc12)C(=O)NCc1ccncc1 | inconclusive: 50.1 µM [inhibitor, partial curve, poor fit] | – | – |
| Cc1ccc(CNC(=O)C2CCN(C(=O)c3ncn4c3COC(c3ccccc3)C4)CC2)cc1 (configuration not stated) | – | inactive: -1.26% | – |
| COC(=O)[C@@H]1Cc2ncn(Cc3ccc(Cl)cc3)c2CN1S(C)(=O)=O | inconclusive: 100 µM [inhibitor, partial curve] | – | – |
| FC(F)Oc1ccccc1CN(CC1CCN(C2CCCC2)CC1)CC1CCCO1 (configuration not stated) | inconclusive: 63.1 µM [inhibitor, partial curve, poor fit] | – | – |
| COc1ccccc1-c1cccc(CN2CCCC(C(=O)NCC(F)(F)F)C2)c1 (configuration not stated) | inconclusive: 44.7 µM [inhibitor, partial curve, poor fit] | – | – |
| O=C(c1csc(N2CCN(c3ccccc3)CC2)n1)N1CCCCCC1 | inconclusive: 44.7 µM [inhibitor, partial curve, poor fit] | – | – |
| Cc1nn(-c2ccccc2)c2c1C(C1CC1)N(C1CCN(Cc3ccccc3C(F)(F)F)CC1)C2=O (configuration not stated) | – | inactive: -14.5% | – |
| O=C(NCc1ccc(F)cc1)C1CCN(C(=O)c2ccc(-c3cncnc3)cc2)CC1 | inconclusive: 35.5 µM [inhibitor, partial curve] | – | – |
| Cn1ncc2c(C(=O)N3CCOCC3)cc(-c3ccccc3)nc21 | – | inactive: -11.2% [at 138 µM] | – |
| CS(=O)(=O)N1CCN(C(=O)Nc2ccccc2)C[C@H]1C(=O)N[C@@H](CC1CCCCC1)C(N)=O | – | inactive: -2.41% | – |
| CC(C)N1CC2CCC(C1)N2Cc1ccc(-c2ccccc2)cc1 | inconclusive: 50.1 µM [inhibitor, partial curve, poor fit] | – | – |
| O=C1COc2ccc(OCc3ccc(F)cc3)nc2CN1CCOc1ccccc1 | inconclusive: 44.7 µM [inhibitor, partial curve, poor fit] | – | – |

| SMILES | Potency | activity change, negative = cytotoxicity | outcome |
| --- | --- | --- | --- |
| COc1ccccc1-c1ccc2c(n1)CN(CC(=O)N1CCCC1)C(=O)CO2 | inconclusive: 112 µM [inhibitor, partial curve, poor fit] | – | – |
| Fc1ccccc1CNC1(Cc2cc(COc3ccccc3)on2)COC1 | inconclusive: 112 µM [inhibitor, partial curve, poor fit] | – | – |
| Cc1cc(Cn2cc3c4c(cccc42)[C@H](CC(C)C)N[C@H](C(=O)NCc2cncn2C)C3)no1 | – | inactive: -20.1% | – |
| COCCN1C(=O)[C@H]2CC[C@@H]1CN(c1ncnc3sc(C)c(C)c13)C2 | inconclusive: 56.2 µM [inhibitor, partial curve, poor fit] | – | – |
| CCOC(=O)[C@@H]1[C@@H](O)C(=O)N(C)C12CCN(C(=O)OC)CC2 | inconclusive: 50.1 µM [inhibitor, partial curve, poor fit] | – | – |
| COc1ccccc1C(=O)NC1CCN(c2ccnc3ccnn23)CC1 | inconclusive: 50.1 µM [inhibitor, partial curve, poor fit] | – | – |
| Cc1nn(-c2ccccc2)c2c1C(C1CC1)N(C1CCN([S+](=O)([O-])c3c(C)noc3C)C1)C2=O (configuration not stated) | – | inactive: -38.9% | – |
| COc1ccc(-c2noc(CC3CCN(C(=O)Cc4ccsc4)CC3)n2)cc1 | inconclusive: 39.8 µM [inhibitor, partial curve] | – | – |
| Fc1ccccc1-c1nnc([C@H]2CCN(C3CCOCC3)C2)o1 | – | inactive: 1.05% [at 138 µM] | – |
| CC1Oc2ccc(NC(=O)C3CC3)cc2CN(Cc2cc(F)cc(F)c2)C1=O (configuration not stated) | – | inactive: -20% | – |
| COCCOC1CN(C2CCN(Cc3cccc(F)c3)CC2)C12CCCCC2 (configuration not stated) | – | inactive: -25.5% | – |
| O=C(c1ccccc1)N1CCC2(CC1)C(=NC1CCCC1)NC(=O)N2c1cc(F)cc(F)c1 | inconclusive: 22.4 µM [inhibitor, full curve] | – | – |
| C[S+](=O)([O-])c1ccc(-c2cc(C(=O)N3CCC(C#N)CC3)nn3cccc23)cc1 | – | inactive: -15.7% | – |
| Cn1cc(CN2C[C@@H](F)[C@@H](OCc3nc4ncccc4[nH]3)C2)c2ccccc21 | inconclusive: 56.2 µM [inhibitor, partial curve, poor fit] | – | – |
| C[C@@H](NC(=O)C1CCOCC1)c1onc(-c2cccnc2)c1C(=O)O | – | inactive: -2.33% [at 138 µM] | – |
| CCOc1cc(=O)n2c(c1C(=O)Nc1ccccc1Cl)CCCC2 | inconclusive: 70.8 µM [inhibitor, partial curve, poor fit] | – | – |
| COCCCNC(=O)c1cn2cc(-c3ccccc3)sc2n1 | inconclusive: 56.2 µM [inhibitor, partial curve, poor fit] | – | – |
| Cc1noc(C)c1-c1cc2cc(CO)oc2c(-c2cccc(OC(C)C)c2)n1 | inconclusive: 39.8 µM [inhibitor, partial curve, poor fit] | – | – |
| COc1ccc2ccc(OCc3nc(C(=O)N(C)Cc4cc(C)no4)co3)cc2c1 | inconclusive: 25.1 µM [inhibitor, partial curve, poor fit] | – | – |
| O=C(NCc1cccnc1)C1CCc2nnc(C3CCN([S+](=O)([O-])c4ccccc4Cl)CC3)n21 (configuration not stated) | – | inactive: -18.1% | – |
| CCCCCNC(=O)c1ccc(Cn2ccn3nc4c(c3c2=O)CCCC4)cc1 | inconclusive: 70.8 µM [inhibitor, single point] | – | – |
| COc1ccc(CN2CC3(CCN(C(=O)Nc4cccc(C)c4)CC3)C2=O)cc1 | – | inactive: -35% | – |
| CCc1cccc2c(C(CC(=O)N3CCc4ccccc4C3)c3cccc4c3OCO4)c[nH]c12 (configuration not stated) | active: 17.8 µM | – | – |

| SMILES | Potency | activity change, negative = cytotoxicity | outcome |
| --- | --- | --- | --- |
| CCOc1ccccc1CN1CCCC2(Cc3ccccc3CNC2=O)C1 (configuration not stated) | – | inactive: -28.7% | – |
| O=C(NC1CCCN(c2cc(-c3ccc(Cl)cc3)[nH]n2)C1)c1ccc2ncccc2c1 (configuration not stated) | inconclusive: 50.1 µM [inhibitor, partial curve, poor fit] | – | – |
| Cc1ccc(OC2(C(=O)NC(C)c3cn4ncsc4n3)CCNCC2)cc1 (configuration not stated) | – | inactive: -13.4% | – |
| COc1cccc(-c2noc(-c3ccc(N4CCCC(CO)C4)nc3)n2)c1OC (configuration not stated) | inconclusive: 50.1 µM [inhibitor, partial curve, poor fit] | – | – |
| CC(=O)Nc1ccc(CN2CCn3c(nnc3C3CCNCC3)C2)cc1 | – | inactive: 2.38% [at 138 µM] | – |
| O=C(NC1CCCCC1)N[C@H]1CO[C@H]2[C@@H]1OC[C@H]2O | – | inactive: 2.7% [at 230 µM] | – |
| Cc1ccccc1Cn1cc(-c2ccncc2)cc1C(=O)O | inconclusive: 17.8 µM [inhibitor, full curve, poor fit] | – | – |
| CCNC(=O)N1CCc2nc(OCC)ccc2C1 | – | inactive: -18.6% | – |
| O=C(c1ccc(Cl)cc1)N1CCC(N(C(=O)C2CC2)C2CCOCC2)CC1 | inconclusive: 39.8 µM [inhibitor, partial curve, poor fit] | – | – |
| O=C1NCc2ccccc2CC12CCCN(Cc1ccc(O)cc1O)C2 (configuration not stated) | – | – | inactive |
| O=C(c1ccc(F)cc1)N1CCC2(CC1)OCC(C(=O)N1CCCC1)N2C(=O)c1cccc(F)c1 (configuration not stated) | – | inactive: -19.6% | – |
| O=C(NCc1cccs1)c1ccc2nnc(-c3ccoc3)n2c1 | inconclusive: 44.7 µM [inhibitor, partial curve, poor fit] | – | – |
| COC(=O)CNC(=O)c1cc(-c2ccc([S+](C)(=O)[O-])cc2)c2cccn2n1 | – | inactive: -21.2% | – |
| CCOC(=O)CN1C(=O)CCN(C(=O)NC2CCCC2)CC(OC)c2ccccc21 (configuration not stated) | inconclusive: 28.2 µM [inhibitor, partial curve, poor fit] | – | – |
| CCOc1ccccc1NC(=O)Nc1cccc(-c2ccc(N3CCOCC3)nn2)c1 | inconclusive: 31.6 µM [inhibitor, full curve] | – | – |
| COc1ccc(C(=O)N2CCCC(c3nc(-c4cccnc4)no3)CCNC(=O)CC2)c(OC)n1 (configuration not stated) | – | – | inactive |
| O=C(NCc1cccc(C(F)(F)F)c1)C1CCCN(c2ccnc3ccnn23)C1 (configuration not stated) | inconclusive: 31.6 µM [inhibitor, partial curve, poor fit] | – | – |
| COC1CCC(C(=O)N2CCC3(CC2)OC(=O)N(Cc2ccccc2)C3(C)c2ccccc2)CC1 (configuration not stated) | inconclusive: 2.82 µM [inhibitor, full curve, poor fit] | – | – |
| COc1ccc(C(=O)N2CCN(C(=O)c3nc4cccnc4n(Cc4ccccc4)c3=O)CC2)cc1 | inconclusive: 79.4 µM [inhibitor, partial curve, poor fit] | – | – |
| COc1cccc(NC(=O)CN2C(=O)NC(c3ccc(C)cc3)C3=C2COC3=O)c1 (configuration not stated) | inconclusive: 50.1 µM [inhibitor, partial curve, poor fit] | – | – |
| O=C(CCCc1ccccc1)N1CCC(Cc2nc(C3CC3)n[nH]2)C1 (configuration not stated) | inconclusive: 70.8 µM [inhibitor, partial curve, poor fit] | – | – |
